From PubChem BioAssay AID1347165 (National Center for Advancing Translational Sciences (NCATS), 2019)
The campaign covered roughly 220,000 compounds. About 5,700 (2.6%) were called active. Inconclusive results, whose numbers are uncertain, are shown with a selection of clear calls. Calls come from the whole dose curve; as a rule, active = well fitted inhibition curve with a large enough effect; inconclusive = small, poorly fitted or top-dose-only effect; inactive = no such curve, though single readings can be large or run the other way. A potency beside an inconclusive call is a rough fit, not a confirmed value.

Target: Lysine-specific demethylase 5B (Homo sapiens) (UniProt Q9UGL1)
Assay: Primary screen for KDM5B Histone Demethylases FDH-coupled qHTS; note: nearly all actives have a fitted effect of over 70% in size; for activity change, negative = inhibition: 0% is about no effect
Details: FDH-coupled NADH fluorescence (FDH is formaldehyde dehydrogenase); activity change, negative = inhibition: at 57.7 µM (top of the series) unless noted
Outline: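 Inhibition is measured as reduced NADH fluorescence generation from FDH coupling to formaldehyde release. Truncated KDM5BΔAP at 200 nM final acts on H3K4me3 peptide (12.5 µM in substrate mix) in pH 7.5 HEPES buffer with Tween-20, 30 min, room temperature.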
Potency is the fitted concentration of half-maximal effect; tags give direction and shape of the fitted curve.

UniProt Q9UGL1, sequence (Q9UGL1 whole entry, looked up): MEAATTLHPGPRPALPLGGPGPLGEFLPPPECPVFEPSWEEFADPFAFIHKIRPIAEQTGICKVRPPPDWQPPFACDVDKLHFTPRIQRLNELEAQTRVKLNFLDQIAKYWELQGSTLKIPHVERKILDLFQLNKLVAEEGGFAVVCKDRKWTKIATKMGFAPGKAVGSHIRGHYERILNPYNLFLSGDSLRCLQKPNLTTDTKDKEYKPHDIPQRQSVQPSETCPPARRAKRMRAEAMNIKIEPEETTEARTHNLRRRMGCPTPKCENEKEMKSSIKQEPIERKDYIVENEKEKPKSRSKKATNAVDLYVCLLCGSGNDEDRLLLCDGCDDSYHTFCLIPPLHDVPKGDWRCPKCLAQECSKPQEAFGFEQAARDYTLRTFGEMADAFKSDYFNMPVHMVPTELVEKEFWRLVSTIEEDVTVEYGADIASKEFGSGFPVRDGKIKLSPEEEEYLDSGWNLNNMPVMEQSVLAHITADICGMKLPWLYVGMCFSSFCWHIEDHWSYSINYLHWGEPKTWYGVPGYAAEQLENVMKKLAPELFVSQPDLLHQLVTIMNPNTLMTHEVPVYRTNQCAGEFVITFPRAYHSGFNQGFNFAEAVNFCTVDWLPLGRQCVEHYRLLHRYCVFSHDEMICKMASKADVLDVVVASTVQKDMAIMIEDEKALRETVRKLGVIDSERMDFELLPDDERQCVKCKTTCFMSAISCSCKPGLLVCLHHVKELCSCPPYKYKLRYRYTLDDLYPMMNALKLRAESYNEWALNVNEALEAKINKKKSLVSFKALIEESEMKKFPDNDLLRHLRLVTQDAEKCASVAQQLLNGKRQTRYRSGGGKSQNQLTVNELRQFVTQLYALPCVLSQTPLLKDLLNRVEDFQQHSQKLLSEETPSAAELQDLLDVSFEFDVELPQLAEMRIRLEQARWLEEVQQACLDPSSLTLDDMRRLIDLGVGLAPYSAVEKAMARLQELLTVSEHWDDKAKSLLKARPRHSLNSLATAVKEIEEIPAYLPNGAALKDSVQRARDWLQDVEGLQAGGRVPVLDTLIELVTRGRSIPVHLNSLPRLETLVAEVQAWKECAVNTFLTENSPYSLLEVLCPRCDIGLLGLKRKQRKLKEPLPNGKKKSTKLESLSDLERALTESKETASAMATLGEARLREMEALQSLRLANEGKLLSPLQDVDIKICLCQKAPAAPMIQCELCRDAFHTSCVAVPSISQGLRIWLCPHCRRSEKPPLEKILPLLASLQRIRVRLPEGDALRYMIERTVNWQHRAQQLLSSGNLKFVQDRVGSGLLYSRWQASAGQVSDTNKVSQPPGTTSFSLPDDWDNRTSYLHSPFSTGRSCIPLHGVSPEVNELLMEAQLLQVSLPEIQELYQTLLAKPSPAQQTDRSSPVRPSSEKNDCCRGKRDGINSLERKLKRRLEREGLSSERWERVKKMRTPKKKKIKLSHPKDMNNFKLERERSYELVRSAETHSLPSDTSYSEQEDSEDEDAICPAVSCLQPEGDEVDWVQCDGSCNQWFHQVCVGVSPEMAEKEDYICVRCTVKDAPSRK

Row | SMILES | activity change, negative = inhibition | Potency
1 | CN(C)CCCNCc1cccs1 | inactive: 12.6% | 
2 | COc1ncccc1-c1nccn2c(C3CN(Cc4ccccc4O)C3)ncc12 |  | inconclusive: 31.6 µM [inhibitor, partial curve, poor fit]
3 | Cc1cnc(C)c(N2CCC(Oc3ccc4c(cnn4CCC(=O)O)c3)CC2)n1 |  | inconclusive: 39.8 µM [inhibitor, partial curve, poor fit]
4 | c1cn(-c2ccc(Oc3nn[nH]n3)cc2)c(-c2cc3n(n2)CCNC3)n1 |  | active: 17.8 µM
5 | CCCCn1c(=O)[nH]c(=O)c2c1nc(CCc1ccccc1)c(=O)n2CCCC |  | inconclusive: 17.8 µM [inhibitor, single point]
6 | COCCNC(=O)Cc1c[nH]c2ncc(-c3cccnc3OC)cc12 |  | active: 31.6 µM
7 | COc1cc(OC)c(C2C=C(C(=O)O)Nc3ncnn32)cc1OC (stereo not given) |  | inconclusive: 12.6 µM [inhibitor, partial curve, poor fit]
8 | O=C1CCN(Cc2ccncc2)CCCC(C(=O)NCCc2c[nH]c3ccccc23)CCN1 (stereo not given) |  | inconclusive: 22.4 µM [inhibitor, single point]
9 | COc1ccc(OC)c(/C=C/C(=O)Oc2ccccc2Cl)c1 |  | inconclusive: 28.2 µM [inhibitor, partial curve, poor fit]
10 | COc1c(C)cc(N)cc1C | inactive: 14.2% | 
11 | COc1ccc(-c2cc(N3CCC(NC(=O)c4ccc(Br)cc4)C3)n[nH]2)cc1 (stereo not given) |  | active: 11.2 µM
12 | CCCc1cc(=O)oc2cc(OCC(=O)OC)ccc12 |  | inconclusive: 25.1 µM [inhibitor, partial curve, poor fit]
13 | O=c1[nH]c(N2CCCC2)nc2nccc(-c3ccccc3)c12 |  | inconclusive: 17.8 µM [inhibitor, partial curve, poor fit]
14 | O=C(O)c1ccc(-c2ncc3cnc(-c4ccccc4)cn23)cc1 |  | inconclusive: 39.8 µM [inhibitor, partial curve, poor fit]
15 | CCCCN(CC)C(=O)Cn1c(=O)n(-c2ccc(OCC)cc2)c(=O)c2c3c(sc21)CCC3 | inactive: -22.3% | 
16 | O=C1CC2(CCN(C(=O)c3ccc4c(c3)OCO4)CC2)Oc2ccccc21 |  | active: 25.1 µM
17 | Cc1ccc(OCC(=O)NCc2ccc(-c3nc4ncccc4o3)cc2)cc1 | inactive: -9.64% | 
18 | CC(NC(=O)c1nccnc1N)c1ccccc1 (stereo not given) |  | inconclusive: 20 µM [inhibitor, partial curve, poor fit]
19 | Cc1cc2nn(-c3ccc(Cl)cc3)nc2cc1NC(=O)C(C)C |  | inconclusive: 10 µM [inhibitor, partial curve, poor fit]
20 | O=C(CCc1ncc(-c2ccccc2)o1)Nc1ccc(OCc2ccccc2)cc1 | inactive: 20% | 
